Assay results taken from the CheMixHub ionic liquid set.
Where “and” joins values, the source holds several entries; their conditions need not be identical. Equal entries are not always repeated. ± gives the uncertainty stated by the source. This continues a long series; more values of the same kind are listed elsewhere.

Assay: xn = mol fraction of the nth substance listed
Conditions: 101 kPa

CCCCCCCCCCCCOS(=O)(=O)[O-].[Na+] + O
Conditions | electrical conductivity
308.15 K, x1 = 0.0001642 | 0.07226 ± 3e-05 S/m
308.15 K, x1 = 0.0001699 | 0.0729 ± 0.001 S/m
308.15 K, x1 = 0.0001757 | 0.0742 ± 0.001 S/m
308.15 K, x1 = 0.0001795 | 0.07536 ± 4e-05 S/m
308.15 K, x1 = 0.0001814 | 0.0753 ± 0.001 S/m
308.15 K, x1 = 0.000187 | 0.0764 ± 0.0011 S/m
308.15 K, x1 = 0.0001928 | 0.0775 ± 0.0011 S/m
308.15 K, x1 = 0.0001979 | 0.07879 ± 4e-05 S/m
308.15 K, x1 = 0.0001982 | 0.0785 ± 0.0011 S/m
308.15 K, x1 = 0.0002038 | 0.0796 ± 0.0011 S/m
308.15 K, x1 = 0.0002092 | 0.0805 ± 0.0011 S/m
308.15 K, x1 = 0.0002147 | 0.0815 ± 0.0011 S/m
308.15 K, x1 = 0.00022 | 0.0824 ± 0.0011 S/m
308.15 K, x1 = 0.0002201 | 0.08275 ± 4e-05 S/m
308.15 K, x1 = 0.0002254 | 0.0834 ± 0.0011 S/m
308.15 K, x1 = 0.0002306 | 0.0843 ± 0.0012 S/m
308.15 K, x1 = 0.0002311 | 0.08468 ± 4e-05 S/m
308.15 K, x1 = 0.0002358 | 0.0852 ± 0.0012 S/m
308.15 K, x1 = 0.0002411 | 0.0861 ± 0.0012 S/m
308.15 K, x1 = 0.000243 | 0.08671 ± 4e-05 S/m
308.15 K, x1 = 0.0002463 | 0.087 ± 0.0019 S/m
308.15 K, x1 = 0.000256 | 0.08886 ± 4e-05 S/m
308.15 K, x1 = 0.0002705 | 0.09132 ± 4e-05 S/m
308.15 K, x1 = 0.0002866 | 0.09421 ± 4e-05 S/m
313.15 K, x1 = 6.692e-05 | 0.03438 ± 1e-05 S/m
313.15 K, x1 = 7.15e-05 | 0.03662 ± 1e-05 S/m
313.15 K, x1 = 7.683e-05 | 0.0396 ± 2e-05 S/m
313.15 K, x1 = 8.33e-05 | 0.0428 ± 2e-05 S/m
313.15 K, x1 = 9.132e-05 | 0.04664 ± 2e-05 S/m
313.15 K, x1 = 0.0001008 | 0.05133 ± 2e-05 S/m
313.15 K, x1 = 0.0001062 | 0.054 ± 2e-05 S/m
313.15 K, x1 = 0.0001123 | 0.05698 ± 2e-05 S/m
313.15 K, x1 = 0.0001191 | 0.06029 ± 2e-05 S/m
313.15 K, x1 = 0.0001264 | 0.06402 ± 2e-05 S/m
313.15 K, x1 = 0.0001355 | 0.06829 ± 3e-05 S/m
313.15 K, x1 = 0.000145 | 0.07309 ± 3e-05 S/m
313.15 K, x1 = 0.0001565 | 0.07799 ± 4e-05 S/m
313.15 K, x1 = 0.0001702 | 0.08184 ± 4e-05 S/m
313.15 K, x1 = 0.0001863 | 0.08548 ± 4e-05 S/m
313.15 K, x1 = 0.0002054 | 0.08933 ± 4e-05 S/m
313.15 K, x1 = 0.0002291 | 0.09414 ± 4e-05 S/m
313.15 K, x1 = 0.0002402 | 0.09639 ± 4e-05 S/m
313.15 K, x1 = 0.0002532 | 0.09885 ± 5e-05 S/m
313.15 K, x1 = 0.0002666 | 0.1014 ± 5e-05 S/m
313.15 K, x1 = 0.0002823 | 0.1045 ± 5e-05 S/m
313.15 K, x1 = 0.0002987 | 0.1077 ± 5e-05 S/m
318.15 K, x1 = 7.35e-06 | 0.0057 ± 0.0006 S/m
318.15 K, x1 = 1.463e-05 | 0.00954 ± 0.00062 S/m
318.15 K, x1 = 2.184e-05 | 0.0133 ± 0.00064 S/m
318.15 K, x1 = 2.898e-05 | 0.017 ± 0.00067 S/m
318.15 K, x1 = 3.604e-05 | 0.0208 ± 0.00071 S/m
318.15 K, x1 = 4.303e-05 | 0.0244 ± 0.00074 S/m
318.15 K, x1 = 4.997e-05 | 0.0279 ± 0.00078 S/m
318.15 K, x1 = 5.683e-05 | 0.0313 ± 0.00083 S/m
318.15 K, x1 = 6.689e-05 | 0.03767 ± 1e-05 S/m
318.15 K, x1 = 7.036e-05 | 0.0381 ± 0.00092 S/m
318.15 K, x1 = 7.144e-05 | 0.04034 ± 2e-05 S/m
318.15 K, x1 = 7.703e-05 | 0.0414 ± 0.00098 S/m
318.15 K, x1 = 7.716e-05 | 0.04354 ± 2e-05 S/m
318.15 K, x1 = 8.364e-05 | 0.0471 S/m and 0.0448 S/m
318.15 K, x1 = 9.164e-05 | 0.05132 ± 2e-05 S/m
318.15 K, x1 = 9.658e-05 | 0.0513 ± 0.0011 S/m
318.15 K, x1 = 0.0001012 | 0.05655 ± 2e-05 S/m
318.15 K, x1 = 0.0001031 | 0.0543 ± 0.0011 S/m
318.15 K, x1 = 0.0001065 | 0.05953 ± 2e-05 S/m
318.15 K, x1 = 0.0001094 | 0.0573 ± 0.0012 S/m
318.15 K, x1 = 0.0001126 | 0.06273 ± 2e-05 S/m
318.15 K, x1 = 0.0001157 | 0.0602 ± 0.0012 S/m
318.15 K, x1 = 0.0001194 | 0.06646 ± 2e-05 S/m
318.15 K, x1 = 0.000122 | 0.0632 ± 0.0013 S/m
318.15 K, x1 = 0.0001271 | 0.07062 ± 2e-05 S/m
318.15 K, x1 = 0.0001281 | 0.0659 ± 0.0013 S/m
318.15 K, x1 = 0.0001342 | 0.0687 ± 0.0013 S/m
318.15 K, x1 = 0.0001354 | 0.07531 ± 3e-05 S/m
318.15 K, x1 = 0.0001404 | 0.0711 ± 0.0013 S/m
318.15 K, x1 = 0.0001454 | 0.08075 ± 3e-05 S/m
318.15 K, x1 = 0.0001465 | 0.0734 ± 0.0013 S/m
318.15 K, x1 = 0.0001524 | 0.0755 ± 0.0013 S/m
318.15 K, x1 = 0.0001575 | 0.0864 ± 3e-05 S/m
318.15 K, x1 = 0.0001584 | 0.0774 ± 0.0012 S/m
318.15 K, x1 = 0.0001641 | 0.079 ± 0.0012 S/m
318.15 K, x1 = 0.0001699 | 0.0805 ± 0.0012 S/m
318.15 K, x1 = 0.0001709 | 0.09131 ± 4e-05 S/m
318.15 K, x1 = 0.0001757 | 0.0819 ± 0.0012 S/m
318.15 K, x1 = 0.0001814 | 0.0832 ± 0.0012 S/m
318.15 K, x1 = 0.0001869 | 0.09558 ± 4e-05 S/m
318.15 K, x1 = 0.000187 | 0.0845 ± 0.0012 S/m
318.15 K, x1 = 0.0001928 | 0.0857 ± 0.0012 S/m
318.15 K, x1 = 0.0001982 | 0.0868 ± 0.0012 S/m
318.15 K, x1 = 0.0002038 | 0.0879 ± 0.0012 S/m
318.15 K, x1 = 0.0002068 | 0.1003 ± 5e-05 S/m
318.15 K, x1 = 0.0002092 | 0.089 ± 0.0012 S/m
318.15 K, x1 = 0.0002147 | 0.0902 ± 0.0013 S/m
318.15 K, x1 = 0.00022 | 0.0912 ± 0.0013 S/m
318.15 K, x1 = 0.0002254 | 0.0924 ± 0.0014 S/m
318.15 K, x1 = 0.0002306 | 0.0936 ± 0.0014 S/m
318.15 K, x1 = 0.0002313 | 0.1057 ± 5e-05 S/m
318.15 K, x1 = 0.0002358 | 0.0946 ± 0.0013 S/m
318.15 K, x1 = 0.0002411 | 0.0956 ± 0.0013 S/m
318.15 K, x1 = 0.0002424 | 0.1083 ± 5e-05 S/m
318.15 K, x1 = 0.0002463 | 0.0966 ± 0.0013 S/m
318.15 K, x1 = 0.000255 | 0.1112 ± 5e-05 S/m
318.15 K, x1 = 0.0002683 | 0.1143 ± 5e-05 S/m
318.15 K, x1 = 0.0002836 | 0.1177 ± 5e-05 S/m
318.15 K, x1 = 0.0003016 | 0.1214 ± 5e-05 S/m
323.15 K, x1 = 6.341e-05 | 0.03905 ± 1e-05 S/m
323.15 K, x1 = 6.876e-05 | 0.04172 ± 1e-05 S/m
323.15 K, x1 = 7.37e-05 | 0.04513 ± 2e-05 S/m
323.15 K, x1 = 8.016e-05 | 0.04865 ± 2e-05 S/m
323.15 K, x1 = 8.779e-05 | 0.05323 ± 2e-05 S/m
323.15 K, x1 = 9.654e-05 | 0.05877 ± 2e-05 S/m
323.15 K, x1 = 0.0001019 | 0.06187 ± 2e-05 S/m
323.15 K, x1 = 0.0001083 | 0.06549 ± 2e-05 S/m
323.15 K, x1 = 0.0001148 | 0.06933 ± 2e-05 S/m
323.15 K, x1 = 0.0001224 | 0.07359 ± 3e-05 S/m
323.15 K, x1 = 0.0001308 | 0.07849 ± 3e-05 S/m
323.15 K, x1 = 0.0001407 | 0.08446 ± 3e-05 S/m
323.15 K, x1 = 0.0001513 | 0.09097 ± 3e-05 S/m
323.15 K, x1 = 0.0001658 | 0.098 ± 3e-05 S/m
323.15 K, x1 = 0.0001819 | 0.1043 ± 4e-05 S/m
323.15 K, x1 = 0.0002013 | 0.1099 ± 4e-05 S/m
323.15 K, x1 = 0.0002254 | 0.1163 ± 5e-05 S/m
323.15 K, x1 = 0.0002372 | 0.1191 ± 5e-05 S/m
323.15 K, x1 = 0.0002502 | 0.1226 ± 5e-05 S/m
323.15 K, x1 = 0.0002644 | 0.1259 ± 5e-05 S/m
323.15 K, x1 = 0.00028 | 0.1297 ± 6e-05 S/m
323.15 K, x1 = 0.000298 | 0.134 ± 6e-05 S/m
328.15 K, x1 = 6.795e-05 | 0.04512 ± 2e-05 S/m
328.15 K, x1 = 7.251e-05 | 0.04843 ± 2e-05 S/m
328.15 K, x1 = 7.822e-05 | 0.05216 ± 2e-05 S/m
328.15 K, x1 = 8.507e-05 | 0.05642 ± 2e-05 S/m
328.15 K, x1 = 9.305e-05 | 0.06154 ± 2e-05 S/m
328.15 K, x1 = 0.0001022 | 0.06761 ± 2e-05 S/m
328.15 K, x1 = 0.0001079 | 0.07113 ± 2e-05 S/m
328.15 K, x1 = 0.0001136 | 0.07507 ± 3e-05 S/m
328.15 K, x1 = 0.0001208 | 0.07955 ± 3e-05 S/m
328.15 K, x1 = 0.0001284 | 0.08434 ± 3e-05 S/m
328.15 K, x1 = 0.0001372 | 0.08978 ± 3e-05 S/m
328.15 K, x1 = 0.0001471 | 0.09628 ± 3e-05 S/m
328.15 K, x1 = 0.0001589 | 0.1035 ± 4e-05 S/m
328.15 K, x1 = 0.0001722 | 0.1112 ± 4e-05 S/m
328.15 K, x1 = 0.0001882 | 0.1178 ± 4e-05 S/m
328.15 K, x1 = 0.0002077 | 0.1243 ± 5e-05 S/m
328.15 K, x1 = 0.0002314 | 0.1312 ± 5e-05 S/m
328.15 K, x1 = 0.0002428 | 0.1344 ± 5e-05 S/m
328.15 K, x1 = 0.0002554 | 0.1379 ± 6e-05 S/m
328.15 K, x1 = 0.0002688 | 0.1416 ± 6e-05 S/m
328.15 K, x1 = 0.0002841 | 0.1457 ± 6e-05 S/m
328.15 K, x1 = 0.0003016 | 0.1501 ± 6e-05 S/m
